{"source": "PubChem BioAssay AID686978", "about": "(National Center for Advancing Translational Sciences (NCATS), 2013)", "note": "About 64,000 (15%) of roughly 420,000 compounds were called active. Inconclusive results, whose numbers are uncertain, are shown with a selection of clear calls. The call rests on the fitted dose curve; in most records, active means well fitted inhibition curve with a large enough effect; inconclusive means small, poorly fitted or top-dose-only effect; inactive means flat fitted curve, though single readings scatter. Potencies of inconclusive entries are left out as doubtful fits. Peptide text beside a SMILES is read from it. * marks the point of attachment. Boc = CC(C)(C)OC(=O)*; Bn = c1ccc(C*)cc1", "data": [{"test": "qHTS for Inhibitors of human tyrosyl-DNA phosphodiesterase 1 (TDP1): qHTS in cells in absence of CPT; further: nearly all actives have a fitted effect of over 55% in size; further: potency means the concentration at half of the fitted maximal effect; tags describe the fitted curve by direction and shape; on activity change, negative = growth inhibition: on the % scale 0 is the no-effect control and ±100 the full control effect", "settings": "DT40 Tdp1-/- hTDP1 cells, no CPT, ATP luminescence, 48 h; activity change, negative = growth inhibition: at 46.2 µM (top of the series) unless noted", "in_short": "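Growth of hTDP1-complemented DT40 Tdp1-knockout cells is measured by ATP luminescence after at least 48 hr compound exposure at 37 °C, with DMSO substituting for the 20 nM CPT used in the parallel screen.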", "values": [{"compound": "COc1ccc(S(=O)(=O)NCc2ccco2)cc1N(C)S(=O)(=O)c1ccccc1", "activity change, negative = growth inhibition": "inconclusive: -30.8% [inhibitor]"}, {"compound": "Cc1ccc(-c2noc(C3CCCN(C(=O)c4cccc(Cl)c4)C3)n2)o1", "note": "(centres undefined)", "Potency": "inconclusive [inhibitor, single point]"}, {"compound": "Cc1nc2c3cc(Cl)ccc3n(CCN3CCCCC3)c2s1", "Potency": "active: 23.1 µM"}, {"compound": "O=C(Cc1cccc(C(F)(F)F)c1)Nc1ccccc1N1CCCC1", "Potency": "inconclusive [inhibitor, partial curve]"}, {"compound": "CN1CCN(C(=O)/C=C/c2ccc([N+](=O)[O-])o2)CC1", "Potency": "active: 14.6 µM"}, {"compound": "COc1ccc(N2CCN(Cc3cc(=O)oc4cc(-c5ccccc5)c(O)cc34)CC2)cc1", "Potency": "active: 6.51 µM"}, {"compound": "COc1ccc(Nc2oc(COc3cccc(C)c3)nc2C#N)cc1", "activity change, negative = growth inhibition": "inactive: -27.4%"}, {"compound": "CCn1c(SCC(=O)NCc2ccccc2)nc2nc3c(cc2c1=O)CCCC3", "Potency": "inconclusive [inhibitor, single point]"}, {"compound": "COc1ccccc1C(=O)COC(=O)Cn1[nH]c(=O)c2ccccc2c1=O", "activity change, negative = growth inhibition": "inactive: -9.48%"}, {"compound": "O=C(NCCCn1ccnc1)/C(=C\\c1ccc(Br)cc1)NC(=O)c1ccccc1", "Potency": "inconclusive [inhibitor, single point]"}, {"compound": "COc1ccc(CNc2ccnc(-c3c(C)noc3C)n2)c(OC)c1", "Potency": "inconclusive [inhibitor, partial curve]"}, {"compound": "COc1ccc(/C(O)=C2/C(=O)C(=O)N(c3nc(C)c(C)s3)C2c2ccco2)cc1", "note": "(centres undefined)", "activity change, negative = growth inhibition": "inactive: -16.5%"}, {"compound": "Cc1ccc2sc(N(CCCN(C)C)C(=O)c3ccc(S(=O)(=O)N4CCc5ccccc5C4)cc3)nc2c1C", "Potency": "active: 4.11 µM"}, {"compound": "O=C(Nc1cccc(NC(=O)c2ccccc2Cl)c1)c1ccc([N+](=O)[O-])o1", "Potency": "active: 5.8 µM"}, {"compound": "CCNC(=O)CC1C(=O)N(c2cccc(OC)c2)C(=O)N1CCOC", "note": "(centres undefined)", "Potency": "inconclusive [inhibitor, partial curve]"}, {"compound": "S=c1nc2ccccc2c2nc(-c3ccccc3Cl)[nH]n12", "Potency": "active: 3.66 µM"}, {"compound": "Cc1ccnc(NC(=O)CSc2ccc3c(c2)OCCO3)c1", "Potency": "inconclusive [inhibitor, partial curve]"}, {"compound": "O=[N+]([O-])c1cccc(-n2cc3ccc([N+](=O)[O-])cc3n2)c1", "activity change, negative = growth inhibition": "inactive: -12%"}, {"compound": "CC(OC(=O)c1cccc(-n2cnnn2)c1)C(=O)N(C)c1ccccc1", "note": "(centres undefined)", "activity change, negative = growth inhibition": "inactive: 15.6%"}, {"compound": "COc1ccc(N2CCN(CCCNC(=O)c3sc4ncccc4c3-n3cccc3)CC2)cc1", "Potency": "inconclusive [inhibitor, single point]"}, {"compound": "CCN(C[C@H]1N[C@@](Cc2ccccc2)(C(=O)OC)[C@H]2C(=O)N(Cc3ccccc3)C(=O)[C@@H]12)S(=O)(=O)c1ccc(C(F)(F)F)cc1", "Potency": "inconclusive [inhibitor, partial curve]"}, {"compound": "CCN(Cc1nc2ccccc2c(=O)[nH]1)C(=O)c1cccc(NC(=O)c2cccs2)c1", "Potency": "inconclusive [inhibitor, single point]"}, {"compound": "CC(C)OCCCNC(=O)Cn1c(-c2cccs2)cc2cc(F)ccc21", "Potency": "inconclusive [inhibitor, single point]"}, {"compound": "CC1CCCC(C)N1/N=C/c1cccc(Br)c1", "note": "(centres undefined)", "activity change, negative = growth inhibition": "inactive: -14%"}, {"compound": "COc1ccc(N(CC(=O)N2CCC(Cc3ccccc3)CC2)S(C)(=O)=O)cc1", "Potency": "inconclusive [inhibitor, partial curve]"}, {"compound": "COc1cc2nc(NCCc3ccc(Cl)cc3)n3nc(-c4ccccc4)nc3c2cc1OC", "Potency": "inconclusive [inhibitor, full curve]"}, {"compound": "CC(=O)NCc1ccc(S(=O)(=O)N2CCN(S(=O)(=O)c3ccc4ccccc4c3)CC2)cc1", "activity change, negative = growth inhibition": "inactive: -5.64%"}, {"compound": "Cc1cc(C)n(S(=O)(=O)c2cccc(Cl)c2Cl)n1", "activity change, negative = growth inhibition": "inactive: -20.8%"}, {"compound": "CCOC(=O)CN1C(=O)S/C(=C/c2cccc([N+](=O)[O-])c2O)C1=O", "Potency": "inconclusive [inhibitor, partial curve, poor fit]"}, {"compound": "O=C(CSc1nnc(CNC(=O)c2ccccc2)o1)NCc1ccc(F)cc1", "activity change, negative = growth inhibition": "inactive: -11.4%"}, {"compound": "CC(C)CC(NC(=O)C(CC(C)C)NC(=O)C(Cc1ccc(OCc2ccccc2)cc1)NC(=O)OC(C)(C)C)C(N)=O", "note": "(stereo not drawn) (Boc-Tyr(Bn)-Leu-Leu-NH2; configuration not given here)", "Potency": "inconclusive [inhibitor, single point]"}, {"compound": "CCN(C(=O)c1nn(C)c2c1CSc1ccccc1-2)c1cccc(C)c1", "Potency": "active: 20.6 µM"}, {"compound": "COc1cc(C(=O)N2CCC(n3c(C)nc4cc(F)ccc43)CC2)cc(OC)c1OC", "activity change, negative = growth inhibition": "inactive: -31.8%"}, {"compound": "CCn1c(COc2ccccc2C)nnc1SCC(=O)NCc1ccccc1", "Potency": "inconclusive [inhibitor, single point]"}, {"compound": "CC(Nc1nc(-c2ccccc2)nc2ccccc12)c1ccccc1", "note": "(centres undefined)", "Potency": "inconclusive [inhibitor, single point]"}, {"compound": "O=S(=O)(N/N=C/c1ccc(N2CCOCC2)cc1)c1ccccc1", "Potency": "inconclusive [inhibitor, single point]"}, {"compound": "CCOC(=O)c1ccc(COC(=O)CNS(=O)(=O)c2ccccc2)cc1", "activity change, negative = growth inhibition": "inactive: -0.735%"}, {"compound": "N#Cc1ccc(C(C(=O)NC2CCCCC2)n2c(=O)c(-c3ccccc3)nc3ccccc32)cc1", "note": "(centres undefined)", "Potency": "inconclusive [inhibitor, full curve]"}, {"compound": "CCOc1cc(-c2cc(C(=O)O)c3c(-c4ccccc4)[nH]nc3n2)ccc1O", "activity change, negative = growth inhibition": "inactive: 3.58%"}, {"compound": "NC(=O)c1ccc(Cc2ncc(C(F)(F)F)cc2Cl)s1", "activity change, negative = growth inhibition": "inactive: -20.1%"}, {"compound": "CCN(CC)C(=O)c1cccc(-c2csc(C(C)(NC(C)=O)c3ccccc3)n2)c1", "note": "(centres undefined)", "Potency": "inconclusive [inhibitor, partial curve]"}, {"compound": "O=C1CC2(CCN(S(=O)(=O)c3ccccc3F)CC2)Oc2ccccc21", "Potency": "inconclusive [inhibitor, single point]"}, {"compound": "COc1ccc(S(=O)(=O)NCC(c2ccco2)S(=O)(=O)c2cccs2)cc1OC", "note": "(centres undefined)", "Potency": "inconclusive [inhibitor, single point]"}, {"compound": "CCCNC(=O)C1CCCN(S(=O)(=O)c2ccc3c(c2)CC(C)N3C(=O)C2CC2)C1", "note": "(centres undefined)", "Potency": "inconclusive [inhibitor, single point]"}]}]}
